Test results published in the supplement of paper PMC4166925.
± gives the standard deviation of the averaged measurements. The full ranking holds about 33,000 sequences; the median of “E-score (dimensionless, -0.5 to 0.5)” is about -0.049, and the highest 2% start at about 0.37. Some of the results follow.

tested on: T1, PmTbr T-box DNA-binding domain (GST fusion); assay: PBM E-score of 8-mer (E-score (dimensionless, -0.5 to 0.5)); Tbr is Tbrain of the sea star Patiria miniata (Pm) or the sea urchin Strongylocentrotus purpuratus (Sp); higher = stronger binding preference; most listed sequences are background and not binding sites; settings: the construct has about 5 more residues each side
T1 sequence: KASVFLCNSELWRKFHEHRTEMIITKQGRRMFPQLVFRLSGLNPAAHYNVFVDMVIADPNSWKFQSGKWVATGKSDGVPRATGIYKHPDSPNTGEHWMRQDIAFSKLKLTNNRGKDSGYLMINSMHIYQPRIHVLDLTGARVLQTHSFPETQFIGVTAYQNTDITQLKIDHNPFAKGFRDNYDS
Summary of the method: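 Universal Agilent oligonucleotide arrays, made double-stranded by primer extension, were incubated with 200 nM GST-fused Tbr T-box DNA-binding domain in PBS (pH 7.5). The protein was expressed in BL21 E. coli at 20 °C and purified by glutathione affinity chromatography. After scanning and quantification, the Universal PBM Analysis Suite assigned an enrichment E-score to each ungapped 8-mer, averaged over duplicate arrays.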

| Sequence | PBM E-score of 8-mer |
| --- | --- |
| ATCATTCG | -0.107 ± 0.029 |
| TACCAGCA | -0.0256 ± 0.03 |
| CACCATAA | 0.022 ± 0.028 |
| GGGAGCAC | -0.22 ± 0.099 |
| GTATTTTA | -0.18 ± 0.11 |
| ACCTGTGA | 0.4002 ± 0.002 |
| AGGTGTGG | 0.483 ± 0.0024 |
| GTCTAGGA | -0.304 ± 0.01 |
| AGATGGCG | 0.007 ± 0.034 |
| ACCCCTCT | -0.0694 ± 0.019 |
| AGCTAGAG | -0.103 ± 0.061 |
| CGGCTTTC | -0.0428 ± 0.074 |
| ACTCCTTC | 0.0419 ± 0.014 |
| ACCGTGTG | 0.218 ± 0.0082 |
| GAGGTCTA | -0.328 ± 0.07 |
| CGCAATCC | -0.0396 ± 0.086 |
| AATTACTC | 0.129 ± 0.0023 |
| GTTAGGCA | -0.0852 ± 0.013 |
| ACTGTCAG | 0.129 ± 0.034 |
| CGTTGGCA | 0.287 ± 0.0039 |
| AACATCGT | -0.127 ± 0.049 |
| CTAGAGAC | -0.017 ± 0.029 |
| GACCTCTC | -0.109 ± 0.026 |
| CTCGGAAG | -0.178 ± 0.042 |

| Sequence | PBM E-score of 8-mer |
| --- | --- |
| AACTACCG | -0.0172 ± 0.022 |
| GATAAACC | -0.0666 ± 0.022 |
| GGGGTTGA | -0.000915 ± 0.043 |
| ACATGTGC | 0.0476 ± 0.0078 |
| CGGGTCGA | -0.018 ± 0.084 |
| AAAGGGTG | 0.259 ± 0.044 |
| CCTACCGA | -0.157 ± 0.0054 |
| ACGGATTG | -0.0811 ± 0.0095 |
| GATGCTGC | -0.232 ± 0.012 |
| GCATTGCA | -0.0859 ± 0.03 |
| AAGGGCAC | 0.057 ± 0.087 |
| CGGAGTCC | -0.183 ± 0.043 |
| CGCGGCTA | 0.0806 ± 0.068 |
| ACGCAACC | -0.0326 ± 0.08 |
| ACTCATAA | -0.114 ± 0.035 |
| CTCTAAAG | -0.228 ± 0.016 |
| AGCTCATG | -0.0399 ± 0.099 |
| CTGACGCC | 0.318 ± 0.0083 |
| CTGCCCCC | -0.345 ± 0.02 |
| AAAGGTAG | -0.0277 ± 0.0096 |
| ACCACCTA | 0.205 ± 0.0085 |
| ATCCCTAG | -0.00496 ± 0.042 |
| CACTGAAC | 0.0119 ± 0.0057 |
| ACGCGGTC | 0.0856 ± 0.035 |

| Sequence | PBM E-score of 8-mer |
| --- | --- |
| CGCCCCAC | 0.0368 ± 0.00072 |
| AGGACTCC | -0.326 ± 0.051 |
| AGCTTGCC | 0.0454 ± 0.0096 |
| AACGAGCC | -0.319 ± 0.096 |
| GCGATGGA | -0.00065 ± 0.015 |
| AGTATATA | -0.0889 ± 0.0048 |
| CCACTAGA | -0.233 ± 0.046 |
| ACGTGGAG | -0.178 ± 0.025 |
| AGACTGTC | -0.112 ± 0.036 |
| CCGGCTAC | -0.11 ± 0.03 |
| CCCACGAG | 0.0603 ± 0.024 |
| CTTGCCTC | -0.126 ± 0.0064 |
| ATGCCCTA | -0.258 ± 0.0039 |
| CCTCTTCG | 0.0574 ± 0.043 |
| CCAAATAG | -0.0315 ± 0.032 |
| CTGAAAAC | -0.0017 ± 0.078 |
| CATAAATA | -0.113 ± 0.065 |
| CGGTGTAC | -0.0932 ± 0.052 |
| GAGGTATC | -0.108 ± 0.0036 |
| ATACTGAC | -0.134 ± 0.051 |
| TCGAACGA | -0.0363 ± 0.084 |
| ACCCATCC | -0.237 ± 0.015 |
| GAGCAATA | -0.185 ± 0.0054 |
| AGCACTTC | 0.313 ± 0.012 |

| Sequence | PBM E-score of 8-mer |
| --- | --- |
| AAGTGGGG | 0.189 ± 0.07 |
| CATTAGTA | -0.141 ± 0.053 |
| TCGATAGA | 0.0213 ± 0.016 |
| TCATCAAA | -0.128 ± 0.047 |
| TCGTTAAA | -0.0308 ± 0.12 |
| CACATCTC | 0.169 ± 0.049 |
| ACCGTTAT | 0.109 ± 0.012 |
| ACTCATCA | -0.00865 ± 0.0078 |
| AATCGATA | 0.132 ± 0.053 |
| AGGCACCA | -0.171 ± 0.024 |
| CCTCCAAG | -0.0919 ± 0.026 |
| ATTAACAA | 0.173 ± 0.14 |
| GAACACCA | 0.0994 ± 0.0056 |
| AGAGCCCG | -0.24 ± 0.017 |
| ACGCCTAC | 0.261 ± 0.034 |
| AATAGTTA | -0.0226 ± 0.045 |
| GAATGACC | -0.13 ± 0.034 |
| CCTTCCGC | 0.219 ± 0.025 |
| GAGGATCC | -0.0137 ± 0.048 |
| GTCTCGTA | -0.16 ± 0.0046 |
| ACACATGC | 0.313 ± 0.041 |
| CTCAAGCA | -0.2589 ± 0.00066 |
